Measured values: US9474759B2 (priority 2011, dated 2016)

Key:
[1] = target: recombinant 3C or 3CL of Polio V (Poliovirus type 1, UniProt P03300)
[2] = target: recombinant 3C or 3CL of FMDV (Foot-and-mouth disease virus serotype O, UniProt P03305)
[3] = target: recombinant 3C or 3CL of SARS-Co (Severe acute respiratory syndrome coronavirus, UniProt P0C6X7)
[4] = target: recombinant 3C or 3CL of NV (Norovirus, UniProt Q83883); test: FRET protease assay, NV 3CL (Example 2)
[5] = target: T1, recombinant 3C or 3CL of HAV (Human hepatitis A virus genotype IB, UniProt P08617)
T1 construct: His6 (N); made in house

[6] = target: recombinant 3C or 3CL of HRV (Human rhinovirus 14, UniProt P03303); test: FRET protease assay, HRV 3C (Example 2)
[7] = target: recombinant 3C or 3CL of TGEV (Porcine transmissible gastroenteritis coronavirus, UniProt P0C6Y5); test: FRET protease assay, TGEV 3CL (Example 2)
norovirus 3CLpro = norovirus 3CLpro (Norovirus, UniProt Q83883); test: In vitro inhibition of norovirus 3CLpro (Example 4)

CC(C)C[C@H](NC(=O)OCc1ccccc1)C(=O)N[C@H](C=O)C[C@@H]1CCNC1=O [GC373]
Inhibition [IC50 (μM)] against recombinant 3C or 3CL: Picornavirus, Polio V [1]: 3.6 µM | Inhibition [IC50 (μM)] against recombinant 3C or 3CL: Picornavirus, FMDV [2]: 0.4 µM | Inhibition [IC50 (μM)] against recombinant 3C or 3CL: Coronavirus, SARS-Co [3]: 45 µM | Inhibition [IC50 (μM)] against recombinant 3C or 3CL: Calicivirus, NV [4]: 2.7 µM | Inhibition [IC50 (μM)] against recombinant 3C or 3CL: Picornavirus, HAV [5]: >100 µM | Inhibition [IC50 (μM)] against recombinant 3C or 3CL: Picornavirus, HRV [6]: 0.3 µM | Inhibition [IC50 (μM)] against recombinant 3C or 3CL: Coronavirus, TGEV [7]: 1.7 µM

CC(C)C[C@H](NC(=O)OCc1ccccc1)C(=O)N[C@@H](CC1CCNC1=O)C(=O)C(=O)NC(C)C (stereo partly shown) [GC375]
Inhibition [IC50 (μM)] against recombinant 3C or 3CL: Picornavirus, Polio V [1]: 2.8 µM | Inhibition [IC50 (μM)] against recombinant 3C or 3CL: Picornavirus, FMDV [2]: 0.8 µM | Inhibition [IC50 (μM)] against recombinant 3C or 3CL: Coronavirus, SARS-Co [3]: 5.1 µM | Inhibition [IC50 (μM)] against recombinant 3C or 3CL: Calicivirus, NV [4]: 5.5 µM | Inhibition [IC50 (μM)] against recombinant 3C or 3CL: Picornavirus, HAV [5]: 36.5 µM | Inhibition [IC50 (μM)] against recombinant 3C or 3CL: Picornavirus, HRV [6]: 0.2 µM | Inhibition [IC50 (μM)] against recombinant 3C or 3CL: Coronavirus, TGEV [7]: 2.8 µM

CC(C)C[C@H](NC(=O)OCc1ccccc1)C(=O)N[C@@H](C[C@@H]1CCNC1=O)C(O)S(=O)(=O)[O-].[Na+] (stereo partly shown) [GC376]
Inhibition [IC50 (μM)] against recombinant 3C or 3CL: Picornavirus, Polio V [1]: 1.5 µM | Inhibition [IC50 (μM)] against recombinant 3C or 3CL: Picornavirus, FMDV [2]: 0.6 µM | Inhibition [IC50 (μM)] against recombinant 3C or 3CL: Calicivirus, NV [4]: 1.3 µM | Inhibition [IC50 (μM)] against recombinant 3C or 3CL: Picornavirus, HAV [5]: >100 µM | Inhibition [IC50 (μM)] against recombinant 3C or 3CL: Picornavirus, HRV [6]: 0.4 µM | Inhibition [IC50 (μM)] against recombinant 3C or 3CL: Coronavirus, TGEV [7]: 0.4 µM

CC(C)C[C@H](NC(=O)OCc1ccccc1)C(=O)N[C@@H](CC1CCNC1=O)C(O)C(=O)NC(C)C (stereo partly shown) [Inhibitor 5a]
in vitro inhibition of norovirus 3CLpro (in words) (norovirus 3CLpro): weak in vitro inhibitory activity

CC(C)NC(=O)C(O)[C@H](CC1CCNC1=O)NC(=O)[C@H](Cc1ccccc1)NC(=O)OCc1ccccc1 (stereo partly shown) [Inhibitor 5h]
in vitro inhibition of norovirus 3CLpro (in words) (norovirus 3CLpro): weak in vitro inhibitory activity

CC(C)NC(=O)C(=O)[C@H](CC1CCNC1=O)NC(=O)[C@H](Cc1ccccc1)NC(=O)OCc1ccccc1 (stereo partly shown) [Inhibitor 6h]
decrease in potency on replacement of P2 Leu with Phe (compare 6a and 6h) (norovirus 3CLpro; 6h relative to 6a): 4 fold

CC(C)C[C@H](NC(=O)OCc1ccccc1)C(=O)N[C@@H](CC1CCNC1=O)C(O)c1nccs1 (stereo partly shown) [Inhibitor 7b]
in vitro inhibition of norovirus 3CLpro (in words) (norovirus 3CLpro): weak in vitro inhibitory activity

CC(C)C[C@H](NC(=O)OCc1ccccc1)C(=O)N[C@@H](CC1CCNC1=O)C(=O)c1ncco1 (stereo partly shown) [Inhibitor 8a]
potency against norovirus 3CLpro, oxazole derivative relative to the corresponding thiazole compound (norovirus 3CLpro; 8a relative to 8b): about 4 fold
